The list shows a part of the results.
B1: chr4:76703833:76703834:+_ENSG00000138768_ENST00000264904|hu_mus|FALSE|FALSE (ssRNA)
RNA: GGGAGUUCUACAGUCCGACGAUCAUUGGAAUUGUUGGUUUUUAACAAGUUUUGAAGUAAAAUCAAACAAUCUUCCACUACUAUACCUCCGUCACUGUUCCCCUCCUCUGUAAUAAUGUCCAGCAGUCGCUCAAAAGCAUUUUCCAACAGAGGAUUGAGCAUCA
B2: chr2:129025431:129025432:+_ENSMUSG00000027397_ENSMUST00000028880|mus_hu|FALSE|FALSE (ssRNA)
RNA: GGGAGUUCUACAGUCCGACGAUCGUACUGGUAAUCAGCGUUGCCAUUCUCUGGAGUAGUGGUUGUUUAGUAAGAGAACUACUGAGCGCCUUUCAAGAUGUGUAAACAGAAUAUGAGGUAUCAAAAAUGCUAUAAUAAAUAAUACAACAGAGGAUUGAGCAUCA
B3: chr4:140556289:140556290:+_ENSMUSG00000036622_ENSMUST00000037055|mus_mus|mus_mus_mus_hu_False|28_38 (ssRNA)
RNA: GGGAGUUCUACAGUCCGACGAUCGAUGGAGCUCACCAGGCCCCCUUUUGCCGUGCAGAACCCUGUGCGGGUCACCACUGCCAGGACGUGCGGUCCCACGUAGGCUCGGGCCUGCAGGAUGAGGGUCCCGCAGAAGAGUGUGUGCAACAGAGGAUUGAGCAUCA
B4: chr9:2804355:2804356:-_ENSG00000080608_ENST00000397885|hu_mus|FALSE|FALSE (ssRNA)
RNA: GGGAGUUCUACAGUCCGACGAUCCGGGUUCCCGCUUGCUCAUCCUGCUGCCUACGCAGUCAGCUUCUCAAGCAGGGUCUGGAUGCCUCUGCUGCUGCUUUUGUUUUUUUCCAAGGUAGGAAUCAGGGGUUUCAGUCCACCUUUCAACAGAGGAUUGAGCAUCA
B5: chr2:217001844:217001845:+_ENSG00000079246_ENST00000392132|hu_hu|hu_hu_hu_mus_False|1_78 (ssRNA)
RNA: GGGAGUUCUACAGUCCGACGAUCACCAACUUGAGGAUUAGAUCUUUUGUCAUAAGCAUAUCGAACUAUGGCGACCAUGUUUAACUCAUCCAAAGCAUGAACGAGAGAGGAAAGGGCAACAGCUGCCGCCUCAUCAUCUCUUGCCAACAGAGGAUUGAGCAUCA
B6: chr4:132926270:132926271:+_ENSMUSG00000028854_ENSMUST00000030669|mus_mus|motif|central (ssRNA)
RNA: GGGAGUUCUACAGUCCGACGAUCGAGAUUCACAAUCUCAAAGUCCAAACUGCAAAAAGGGGUUAAGUACCUUGGAGGGACGGAGGAGGAAACCGAAAGGAUCUAGAACUUCAGGCUGAGAGAAGGAAAUCGGGGAAACUGCGUCAACAGAGGAUUGAGCAUCA
B7: chr2:175094126:175094127:-_ENSG00000138430_ENST00000344357|hu_mus|FALSE|FALSE (ssRNA)
RNA: GGGAGUUCUACAGUCCGACGAUCUCUGCUCUCAUUAGGAUCAAUAGUGCAGAAUGGGAAGUUUUCUGCUGAAGCCUGACUAUUGGUUAAUACAUUGAAGAAGGUAGACUUCCCAACAUUUGGCAAUCCAACGAUACCAAUUUUCAACAGAGGAUUGAGCAUCA
B8: 126997051_126997171_7805_CDS_ENSMUSG00000040249_ENSMUST00000049149|mouse|control|control (ssRNA)
RNA: GGGAGUUCUACAGUCCGACGAUCGAUGCCCAUGGGUUGCUGGGGAAUGUCCACCCGAAGCAGCUUCAUGUCGCUGCCCACAUACUUGUUGGCUCGCUGCACAGCCCGCCGCACCCAGUCAGUCCAGAAAAUGUGCUCUCCGUACAACAGAGGAUUGAGCAUCA
B9: chr20:52831857:52831858:+_ENSG00000101132_ENST00000441080|hu_hu|FALSE|FALSE (ssRNA)
RNA: GGGAGUUCUACAGUCCGACGAUCAAGCAUGAUGUCAUCACAAGCAUCUUCUAGGUUUUGGAGUUGUUUCUUUUUUACUUCUAUUUCUUCCUUCAGCUCUGUGAUUCUACUUGUAUUCCGUGCAAAUUUGUUUAUCUUUUGUUGCAACAGAGGAUUGAGCAUCA
B10: chr6:40197388:40197389:+_ENSMUSG00000057716_ENSMUST00000061740|mus_mus|mus_mus_mus_hu_False|68_98 (ssRNA)
RNA: GGGAGUUCUACAGUCCGACGAUCGAGACACUGGGGUGGAUGGCACCCACCUCUGUUUGGGUGCUAGUAAGAUAGAUUGUUAUUUUGGGAUUCAUGGCCUUGAAUAUCAAGAGGGAAAGGAAGAGGAUGGAAAGAGUCAAGAGUCAACAGAGGAUUGAGCAUCA
B11: chr1:169356373:169356374:+_ENSG00000117475_ENST00000367808|hu_hu|motif|central (ssRNA)
RNA: GGGAGUUCUACAGUCCGACGAUCGGCAAUCAGUUCUCCCCGGCAGUGAUUGCAGCAAUUGAAAGUUAUAUUUUCAUAUCGGGUAUAGGGAUGAAAUCGUCCAAUAUUUUUCUUUGUAGCAAGUAAGGUGGUUGGUGAAGACUCCAACAGAGGAUUGAGCAUCA
B12: chr2:25103730:25103731:-_ENSMUSG00000006471_ENSMUST00000100329|mus_hu|FALSE|FALSE (ssRNA)
RNA: GGGAGUUCUACAGUCCGACGAUCACAGUCCCGCUUCUCCAGCUCCUGCCACUCAGCCUCCCAGUAGAAGUCUUGGUCCCGCCAGCGGCAGCCAAAAAACAAGAAGUUUCCAGUCUGGCCCUGGGCCACACGCUCCUGGAUGGCCAACAGAGGAUUGAGCAUCA
B13: chr1:6218034:6218035:+_ENSMUSG00000025907_ENSMUST00000027040|mus_hu|FALSE|FALSE (ssRNA)
RNA: GGGAGUUCUACAGUCCGACGAUCAUUAAAACUGGCUUAUGUUUGCUUUGCUUGAGAUUGGCAACUGAAUGGCAUUACUGGUUAAACUCAGAAAACCGGCAACGCCUCCUCCUUCGCCGGCGGCAGCAGCAGAGCCAGCGACCCCAACAGAGGAUUGAGCAUCA
B14: chr14:94545736:94545737:-_ENSG00000089737_ENST00000330836|hu_mus|FALSE|FALSE (ssRNA)
RNA: GGGAGUUCUACAGUCCGACGAUCCUCGGACGCUUUGACUUCAUACUCAUUCUGGGCAGCAGCGCCUUCGGCAGCUCGUGCCGCAUCUCUCUGCUUCUUCAACUUGAUCUUUUUCUUUGGGGAGCUGGACUGUCCUUCCUCCUCCAACAGAGGAUUGAGCAUCA
B15: chr16:94690093:94690094:+_ENSMUSG00000040785_ENSMUST00000117648|mus_hu|mus_mus_mus_hu_True|48_108 (ssRNA)
RNA: GGGAGUUCUACAGUCCGACGAUCGGGGACUCCUGUGGGACACACAGCCUCGAUUCCAGGGGGAAAAAGUCUUAGUCGAUACUAAUUUAAAAAGUAUAAUGAUUUUUGAAAAUCAGAUUACAUCUAUAAAAGAUGAAAAGCAAACAACAGAGGAUUGAGCAUCA
B16: chr5:71494600:71494601:+_ENSG00000131711_ENST00000296755|hu_hu|FALSE|FALSE (ssRNA)
RNA: GGGAGUUCUACAGUCCGACGAUCCAUUGUAUCGAAUAACACUGAGGCACGGAAGCCAUAGGGCUCUGCGGAUGCUGCAUCUAUUGGUGGAGAAGAGGAACUGUGGCAAGUUGCUGUUUUCUCUUUGACUGCAGAGGUAGAAUCCAACAGAGGAUUGAGCAUCA
B17: chr12:111875471:111875472:+_ENSMUSG00000018707_ENSMUST00000018851|mus_mus|FALSE|FALSE (ssRNA)
RNA: GGGAGUUCUACAGUCCGACGAUCGUCUGUCCACUCCCUGGUGUUGGGAUCCAAGGUUCCGUAGAGGUGGUCUUUGCUGAUGGCCUUGGGGUCAAUUAUGUGGGCCACGCCCUCCACACCCUCAAGCCUCUCUAGAGCCUUCAGCAACAGAGGAUUGAGCAUCA
B18: chr2:202488911:202488912:-_ENSG00000155755_ENST00000286196|hu_mus|hu_hu_hu_mus_False|1_1 (ssRNA)
RNA: GGGAGUUCUACAGUCCGACGAUCAUUGAAACAUUUUUCAUAAUCUCCAGUAGCAUUUCAGCAUUAUGUAACAAAAGCUCAAUUGUAAAUACAUGUAUCUUAUAAAAAUACACUUAAAAACACGAGUGGGGAGCGCACAAAUACCAACAGAGGAUUGAGCAUCA
B19: 72566378_72566498_195_3pUTR_ENSMUSG00000031858_ENSMUST00000050561|mouse|control|control (ssRNA)
RNA: GGGAGUUCUACAGUCCGACGAUCAUCCGCUGAGGCGGCUUGAAGGGGAACACGGCCUGCAGGCAAUGAACGCACAAGCGGAUCUUGGGCGGGCUAGAUGUUCGGAAGUGCUCGGCGAAACCCAGGAGAGCCAGAUACCACGACCAACAGAGGAUUGAGCAUCA
B20: chr7:150253219:150253220:+_ENSMUSG00000037706_ENSMUST00000037941|mus_mus|FALSE|FALSE (ssRNA)
RNA: GGGAGUUCUACAGUCCGACGAUCCCGGAUGCCACAGCACAGCACCAUGCUCAGAAUCAUCUCAAAGAUCAUAAUGACAGCUACCACAAUGGCUGCAAUUCCAAUGAGGUACAGCUUCCCAGAGAAGAGCUCAUCGAUUUUCUGCAACAGAGGAUUGAGCAUCA
B21: chr1:212156110:212156111:-_ENSG00000143493_ENST00000366992|hu_hu|FALSE|FALSE (ssRNA)
RNA: GGGAGUUCUACAGUCCGACGAUCUCCAUGAGCUGCAAUGCCCCUGUUAUUAUGGUAACAGCACUCUUGGGCUAAUUUGACUAAAUCAGAAGAUCUGGGAGAAGAACUCACAUUUCCUGGAACUAUACUGAAGUAAUGUUUGAUCAACAGAGGAUUGAGCAUCA
B22: chr6:53132721:53132722:-_ENSG00000012660_ENST00000304434|hu_mus|FALSE|FALSE (ssRNA)
RNA: GGGAGUUCUACAGUCCGACGAUCCCCCAUUUGUAUGACCGAUGCCUCGAGCGCACUAGACACGAUUUUAGGAUAAGCAGUCCAAGCACUUUAAACCGAUCUUUAGGUGCUAAUCAGAAAAAAAUUACAGAUGCCACCAUGAUUCAACAGAGGAUUGAGCAUCA

Each binder was assayed against T1, UNK ZnF1-3 (human, UniProt Q9C0B0 31-174) (assay: nsRBNS (natural sequence RNA bind-n-seq); RBNS binding buffer (assumed for nsRBNS): 25 mM Tris pH 7.5, 150 mM KCl, 3 mM MgCl2, 0.01% Triton X-100, 500 ug/ml BSA, 20 U/ml SUPERase-In, 4 C; UNK is unkempt and MSI1 is Musashi-1; names of the RNAs are library labels; protein concentration not given here; high values mean tight binding).
T1 sequence: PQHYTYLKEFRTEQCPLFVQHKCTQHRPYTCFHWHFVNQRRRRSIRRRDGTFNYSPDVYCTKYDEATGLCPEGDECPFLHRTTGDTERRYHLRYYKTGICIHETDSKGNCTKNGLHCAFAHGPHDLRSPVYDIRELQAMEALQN
Binder B1 has a binding signal of 0.703 enrichment R. B2 gave a binding signal of 2.08 enrichment R. Binder B3 has a binding signal of 1.11 enrichment R. B4 gave a binding signal of 0.361 enrichment R. B5 gave a binding signal of 1.45 enrichment R. For B6, the binding signal was 1.49 enrichment R. With B7 the binding signal was 1.13 enrichment R. Binder B8 has a binding signal of 0.81 enrichment R. In the case of B9, the binding signal is reported as 0.342 enrichment R. In the case of B10, the binding signal is reported as 2.01 enrichment R. B11 was tested, and the binding signal was 1.8 enrichment R. B12 gave a binding signal of 1.39 enrichment R. In the case of B13, the binding signal is reported as 0.92 enrichment R. In the case of B14, the binding signal is reported as 0.501 enrichment R. B15 was tested, and the binding signal was 0.973 enrichment R. With B16 the binding signal was 1.33 enrichment R. Work on B17 yielded a binding signal of 0.653 enrichment R. B18 was tested, and the binding signal was 1.19 enrichment R. B19 gave a binding signal of 1.69 enrichment R. B20 gave a binding signal of 1.29 enrichment R. Work on B21 yielded a binding signal of 1.23 enrichment R. Binder B22 has a binding signal of 1.06 enrichment R.
